Laboratory results published in PubChem BioAssay AID485294 (National Center for Advancing Translational Sciences (NCATS), 2010).
In all, about 370,000 compounds went through this assay and about 150 (0.041%) were called active. The inconclusive results got no clear call from the source; some entries with a clear call stand among them for comparison. Calls come from the whole dose curve; as a rule, active = well fitted inhibition curve with a large enough effect; inconclusive = small, poorly fitted or top-dose-only effect; inactive = flat fitted curve, though single readings scatter. No potency is given beside an inconclusive call; the fits are too rough.

Each compound was assayed against Beta-lactamase (Escherichia coli (strain K12)) (UniProt P00811) (assay: qHTS Inhibitors of AmpC Beta-Lactamase (assay with detergent)). Details: AmpC hydrolysis of nitrocefin, absorbance 480 nm, 0.01% Triton; series mostly up to 114 µM.
UniProt P00811, sequence (P00811 whole entry, looked up): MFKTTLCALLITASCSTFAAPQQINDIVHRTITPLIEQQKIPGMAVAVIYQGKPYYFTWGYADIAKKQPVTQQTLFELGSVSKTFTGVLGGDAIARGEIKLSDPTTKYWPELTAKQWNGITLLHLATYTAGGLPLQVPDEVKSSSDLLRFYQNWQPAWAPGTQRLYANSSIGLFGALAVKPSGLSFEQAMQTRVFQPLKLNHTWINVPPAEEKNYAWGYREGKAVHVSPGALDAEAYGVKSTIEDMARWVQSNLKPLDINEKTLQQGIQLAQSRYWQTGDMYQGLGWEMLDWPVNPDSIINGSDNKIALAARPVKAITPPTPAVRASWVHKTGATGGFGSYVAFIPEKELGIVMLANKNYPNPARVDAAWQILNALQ
In short: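 20 mM phosphate pH 7.0 + 0.01% (detergent screen) or 0.0001% Triton X-100; 5.3 nM AmpC reagent; cpd preinc 15 min RT; nitrocefin (800 uM stock) to start; A480 q20 s × 4 min; Activity was normalised to no-enzyme and no-compound control wells.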
Note: nearly all actives have a fitted effect of over 25% in size.
Potency is the fitted concentration of half-maximal effect; tags give direction and shape of the fitted curve.

SMILES | Potency
CC(=O)c1coc2c1cc(O)c1ccccc12 | inconclusive [inhibitor, full curve, poor fit]
O=C(O)C1CC(=O)N(c2ccc(OCc3ccc(Br)cc3)cc2)C1 (centres undefined) | inconclusive [inhibitor, partial curve]
Cc1ccc(-c2cc(-c3ccccc3Cl)[nH]n2)c(O)c1 | inconclusive [inhibitor, full curve, poor fit]
C/C(=N\NC(=O)C(O)c1ccccc1)c1ccc(Cl)cc1 (centres undefined) | inactive
COc1ccc(C(=O)NCCNC(=O)c2cc(OCC(F)(F)F)ccc2OCC(F)(F)F)cc1 | inactive
CCc1sc(C(=O)Nc2cccc(C(C)=O)c2)cc1C | inconclusive [inhibitor, partial curve]
Cc1cccc(N2CC(C(=O)Nc3nnc(SCC(=O)Nc4nccs4)s3)CC2=O)c1 (centres undefined) | inconclusive [inhibitor, full curve, poor fit]
O=C(NCCCN1CCCCC1)c1ccc2c(=O)n(CCc3ccccc3)c(=O)[nH]c2c1 | inactive
O=C(Nc1scc(-c2ccccc2)c1C(=O)O)c1ccccc1F | inconclusive [inhibitor, partial curve, poor fit]
Cc1ccc(-c2nc(COC(=O)c3c(C)noc3C)cs2)cc1 | inconclusive [inhibitor, full curve, poor fit]
COc1ccc(-c2nc3nc(C)cc(Nc4cccc(C(F)(F)F)c4)n3n2)cc1 | inactive
CCCc1cc(=O)n2[nH]c(C)c(-c3ccccc3)c2n1 | inconclusive [inhibitor, full curve, poor fit]
COc1cc(C2/C(=C(/O)c3ccccc3)C(=O)C(=O)N2c2ccccn2)ccc1O (centres undefined) | inactive
O=C(OCC(=O)N1CCCC1)c1ccco1 | inconclusive [inhibitor, full curve, poor fit]
COc1cc2c(cc1NC(=S)NC(=O)c1c(OC)cccc1OC)oc1ccccc12 | inconclusive [inhibitor, single point]
CN(C)S(=O)(=O)N1CCC(C(=O)O)(c2ccccc2)CC1 | inconclusive [inhibitor, single point]
COc1ccc(C(=O)Nc2ccc(C)cn2)c(OC)c1 | inconclusive [inhibitor, full curve, poor fit]
CCN(CC)c1ccc(/C=N/OC(C)C(=O)Nc2ccc(C)cc2)cc1 (centres undefined) | inconclusive [inhibitor, full curve, poor fit]
CCCCN(C)C1=CC2=CC(=C(C#N)C#N)CCC2CC1 (centres undefined) | inconclusive [inhibitor, full curve, poor fit]
